13 compounds from the supplement of paper PMC4604168 (melanoma cell lines) can be followed below.

The list shows a part of the results. Repeats are few or missing, and single values can be far off.

Holding throughout (assay): cell count relative to DMSO control; melanoma cells; higher = more viable cells
The subject of one test is 501Mel. Conditions: library dose: standard library concentration; 72 h.
The subject of another test is A101D. The following applies: library dose: standard library concentration; 72 h.
In a further test the test system is A2058. Conditions: library dose: standard library concentration; 72 h.
Another test relates to A375. Conditions: library dose: standard library concentration; 72 h.
Another test has as its system MeWo. The following applies: library dose: low library concentration; 72 h.
For another test, the system named is RPMI7951. Conditions: library dose: low library concentration; 72 h.
Another test concerns RVH-421. Conditions: library dose: low library concentration; 72 h.
In a further test the test system is SkMel28. Conditions: library dose: low library concentration; 72 h.
The subject of a further test is SkMel2. The following applies: library dose: low library concentration; 72 h.
In the next test the test system is SkMel30. Conditions: library dose: low library concentration; 72 h.
The subject of the next test is UACC62. The following applies: library dose: low library concentration; 72 h.
The test system of a further test is WM115. Conditions: library dose: low library concentration; 72 h.
In another test the test system is WM1716. Conditions: library dose: low library concentration; 72 h.
For a further test, the system named is WM1745. Conditions: library dose: low library concentration; 72 h.
A further test concerns WM3526. The following applies: library dose: low library concentration; 72 h.
A further test deals with WM3619. Conditions: library dose: low library concentration; 72 h.
In the next test the test system is WM451Lu. The following applies: library dose: low library concentration; 72 h.
A further test concerns SkMel5. The following applies: library dose: low library concentration; 72 h.
A further test relates to UACC257. The following applies: library dose: low library concentration; 72 h.

As for `CO[C@H]1C[C@@H]2CC[C@@H](C)[C@@](O)(O2)C(=O)C(=O)N2CCCC[C@H]2C(=O)O[C@H]([C@H](C)C[C@@H]2CC[C@@H](OCCO)[C@H](OC)C2)CC(=O)[C@H](C)/C=C(\C)[C@@H](O)[C@@H](OC)C(=O)[C@H](C)C[C@H](C)/C=C/C=C/C=C/1C` [everolimus] + N#Cc1c(O)c2c(-c3ccc(-c4ccccc4O)cc3)csc2[nH]c1=O [A769662] (first compound 0.1 µM, partner dose 10 µM), the cell count in the test with 501Mel is 72.1%; with A101D, 86.5%; in the test with A2058, 71.8%; in the test on A375, 87.7%.

With `Nc1ccn([C@@H]2O[C@H](CO)[C@@H](O)C2(F)F)c(=O)n1` [gemcitabine] + COC(=O)c1sccc1S(=O)(=O)Nc1ccc(Nc2ccccc2)cc1OC [GSK0660] (first compound 0.002 µM, partner dose 5 µM), the cell count with 501Mel was determined as 115%; with A101D, 87.1%; in the test with A2058, 68.8%; in the test on A375 it was 105%.

For the compound `CC(=O)c1c(C)c2cnc(Nc3ccc(N4CCNCC4)cn3)nc2n(C2CCCC2)c1=O` [palbociclib] + COc1cc(N2CCC(N3CCN(C)CC3)CC2)ccc1Nc1ncc(Cl)c(Nc2ccccc2S(=O)(=O)C(C)C)n1 [NVP-TAE684] (first compound 0.2 µM, partner dose 0.4 µM), the cell count was 45.3% with 501Mel, 54.6% with A101D, 58.1% with A2058 and 57.4% in the test on A375.

`CC(=O)c1c(C)c2cnc(Nc3ccc(N4CCNCC4)cn3)nc2n(C2CCCC2)c1=O` [palbociclib] + Oc1cc(-c2nc(-c3ccccc3)[nH]c2-c2ccncc2)ccc1Cl [L779450] (first compound 0.2 µM, partner dose 1 µM): the cell count in the test on 501Mel amounted to 67.4%; with A101D it was 65.1%; with A2058 it was 81.6%; in the test on A375, 107%.

`CC(=O)O[C@@]12CO[C@@H]1C[C@H](O)[C@@]1(C)C(=O)[C@H](O)C3=C(C)[C@@H](OC(=O)[C@H](O)[C@@H](NC(=O)OC(C)(C)C)c4ccccc4)C[C@@](O)([C@@H](OC(=O)c4ccccc4)[C@H]21)C3(C)C` [Docetaxel] + O=C(O)c1ccc2c(c1)nc(Nc1cccc(Cl)c1)c1ccncc12 [CX4945] (first compound 0.0001 µM, partner dose 0.4 µM): the cell count with MeWo is 51.2%; in the test on RPMI7951, 35%; in the test on RVH-421 it was 85.9%; in the test on SkMel28 it was 38.6%; with SkMel2 it was 47.6%; with SkMel30, 39.8%. Moreover, the cell count in the test on UACC62 was found to be 39.4%; with WM115, 60.1%; in the test on WM1716, 39.2%; in the test on WM1745 it was 63.6%; in the test with WM3526 it was 44.8%; in the test on WM3619 it was 61.4%. For the same compound, the cell count in the test on WM451Lu is 86.6%.

Turning to `CO[C@H]1C[C@@H]2CC[C@@H](C)[C@@](O)(O2)C(=O)C(=O)N2CCCC[C@H]2C(=O)O[C@H]([C@H](C)C[C@@H]2CC[C@@H](OCCO)[C@H](OC)C2)CC(=O)[C@H](C)/C=C(\C)[C@@H](O)[C@@H](OC)C(=O)[C@H](C)C[C@H](C)/C=C/C=C/C=C/1C` [everolimus] + CN(C)S(=O)(=O)c1ccc2c(c1)/C(=C/c1cc3c([nH]1)CCCC3)C(=O)N2 [SU6656] (first compound 0.02 µM, partner dose 0.4 µM), the cell count turned out to be 68.3% in the test on MeWo; 104% with RPMI7951; 102% in the test with RVH-421; 55.3% with SkMel28; 66% in the test on SkMel30; 85.1% with SkMel5. Besides, the cell count in the test on UACC257 was 71.7%; with UACC62 it was 66.1%; in the test on WM115 it was 60%; with WM1716, 104%; in the test with WM1745, 95.2%; in the test on WM3526, 73.4%. In addition, the cell count is 110% in the test with WM3619 and 88.8% in the test on WM451Lu.

As for `Nc1ccn([C@@H]2O[C@H](CO)[C@@H](O)C2(F)F)c(=O)n1` [gemcitabine] + O=C(CCCCCCC(=O)Nc1ccccc1)NO [vorinostat] (first compound 0.0004 µM, partner dose 0.08 µM), the cell count with MeWo amounted to 105%; in the test with RPMI7951 it was 100%; in the test with RVH-421, 86%; in the test on SkMel28, 86.7%; with SkMel30 it was 120%; with SkMel5, 98.3%. The cell count in the test on UACC257 stood at 95.8%; with UACC62, 82.4%; in the test with WM115, 107%; with WM1716 it was 125%; in the test on WM1745 it was 61.5%; in the test with WM3526, 104%. Also, the cell count in the test on WM3619 amounted to 61.3%; in the test with WM451Lu, 78.8%.

As to `Nc1nc(F)nc2c1ncn2[C@@H]1O[C@H](CO)[C@@H](O)[C@@H]1O` [fludarabine] + Cn1cc(/C=C2\C(=O)Nc3cccnc32)c2ccccc21 [GW441756] (first compound 1 µM, partner dose 2 µM), the cell count came out at 2.66% with 501Mel, 87.4% in the test on A101D, 102% in the test on A2058 and 55.4% in the test with A375.

Take `Nc1nc(F)nc2c1ncn2[C@@H]1O[C@H](CO)[C@@H](O)[C@@H]1O` [fludarabine] + COC(=O)c1sccc1S(=O)(=O)Nc1ccc(Nc2ccccc2)cc1OC [GSK0660] (first compound 1 µM, partner dose 5 µM): the cell count in the test on 501Mel came out at 6.69%; in the test on A101D, 93.2%; with A2058, 81.2%; in the test with A375, 32.7%.

As to `Nc1ncn([C@H]2C[C@H](O)[C@@H](CO)O2)c(=O)n1` [decitabine] + COc1ccc(-c2ccc3c(N4CCOCC4)nc(N4C[C@@H](C)O[C@@H](C)C4)nc3n2)cc1CO [KU0063794] (first compound 0.5 µM, partner dose 0.1 µM), the cell count in the test with 501Mel is 92.1%; with A101D, 86.6%; with A2058, 76%; with A375, 97.9%.

For the compound `Nc1ncn([C@H]2C[C@H](O)[C@@H](CO)O2)c(=O)n1` [decitabine] + CCc1ccc(CCOc2ccc(CC3SC(=O)NC3=O)cc2)nc1 [pioglitazone] (first compound 0.5 µM, partner dose 10 µM), the cell count in the test with 501Mel was determined as 113%; in the test with A101D, 64.7%; in the test on A2058, 59.4%; in the test on A375 it was 97.3%.

Take `Nc1ccn([C@@H]2O[C@H](CO)[C@@H](O)C2(F)F)c(=O)n1` [gemcitabine] + O=C1NC(=O)/C(=C/c2ccc(-c3ccc(F)cc3O)o2)S1 [AS252424] (first compound 0.002 µM, partner dose 5 µM): the cell count in the test on 501Mel was 83.3%; in the test on A101D, 77.8%; with A2058 it was 55%; in the test with A375, 172%.

In the case of `Nc1nc(F)nc2c1ncn2[C@@H]1O[C@H](CO)[C@@H](O)[C@@H]1O` [fludarabine] + O=S(=O)(c1ccccc1)N(CC(F)(F)F)c1ccc(C(O)(C(F)(F)F)C(F)(F)F)cc1 [T0901317] (first compound 0.2 µM, partner dose 1.4 µM), the cell count amounted to 43.2% with MeWo; 92.6% with RPMI7951; 107% with RVH-421; 72.2% in the test with SkMel28; 22.4% with SkMel30; 62.3% with SkMel5. For the same compound, the cell count with UACC257 was 86.9%; in the test with UACC62, 86.2%; in the test with WM115, 91.6%; in the test on WM1716, 101%; with WM1745, 92.1%; in the test on WM3526 it was 28%. In addition, the cell count in the test on WM3619 came to 103%; with WM451Lu, 44.4%.
